Laboratory results published in the supplement of paper PMC10126150.
Values marked as one replicate rest on one cluster of the flow cell; about a third of the high ones do not repeat.

Test system: ATP
Test: switch fluorescence ratio, 500 uM ATP over buffer (Cy3 cluster intensity, sum of 5 cycles each) (fold (ratio)); higher = stronger signal-on switching upon ATP binding; sequences stand for … in TCGTCGGCAGCGTCAGATGTGTATAAGAGACAGTTTTTTTTTTTTTTTTTTTTTTTTT…TC
Settings: aptamer strand: ATP DNA aptamer (quencher-CACCTGGGGGAGTATTGCGGAGGAAGG + anchor), 100 nM annealed; ATP concentration: 500 uM; one replicate
Method in brief: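 Between each of five buffer/ATP cycles, the flow-cell was stripped with NaOH and re-annealed. Each cycle imaged Cy3-labelled switching-strand clusters, annealed to 100 nM quencher-labelled ATP aptamer on a modified Illumina MiSeq flow-cell, first in selection buffer and then after 15 min with 500 uM ATP at 22 °C. The fluorescence ratio is summed target-cycle over summed buffer-cycle Cy3 intensity per cluster, averaged per switch-domain sequence, with clusters outside 100-1000 RFU excluded.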
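Also: ATP exposure 15 min at 22 °C before imaging.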

| Sequence | switch fluorescence ratio |
| --- | --- |
| TTGGCGGTCA | 1.04 |
| AGAAGGTCAG | 1.03 |
| GATGAGCAGC | 1.03 |
| CGGGCGCCTT | 0.999 |
| CGTCTGAG | 1.01 |
| ACGTACCGAA | 1.53 |
| GACTTAAT | 0.985 |
| TGTGACCGGA | 0.935 |
| TTCGGCCCAC | 0.996 |
| ACGTGTTCTG | 0.954 |
| TATGTTGGTC | 0.968 |
| ATTAAATGTC | 0.992 |
| TAGGCTACGA | 1.02 |
| GGATAAGG | 1.02 |
| GGAAGTGGTT | 0.996 |
| AAAATCACCG | 1.06 |
| TGCCATGTAT | 0.959 |
| ATGATACTTT | 1.27 |
| GGTTAGGAAT | 1.01 |
| AACACCGTAG | 1.13 |
| ACAATTACCT | 1.32 |
| TGTAAATAGC | 1.02 |
| GAGAGCTGGG | 0.988 |
| TACGCACACC | 3.02 |
| TTAAACATTT | 0.981 |
| GCAACCCCGG | 1.08 |

| Sequence | switch fluorescence ratio |
| --- | --- |
| GGGTGAAACG | 0.938 |
| TTGCGGTGGA | 1.06 |
| CGATAAAGAA | 1.03 |
| CTATGGAGGT | 0.982 |
| ATTTTCTCG | 0.961 |
| TTTAGACTCT | 0.956 |
| CGAGACGCGG | 0.959 |
| TCGCGACACC | 1.29 |
| TACCGGGTTA | 1.04 |
| TCGTAGTATG | 1.01 |
| GCTATAACCG | 0.969 |
| GCGTTATTCT | 1.01 |
| ATAAGATTAA | 0.971 |
| CCGGACGGGA | 1.03 |
| AACGAGGACT | 1.04 |
| AGGTCACTGC | 0.951 |
| ACTACTAATG | 1.1 |
| TGATTTTCTT | 0.977 |
| GCGATACAGC | 1.09 |
| ATATGGTCCT | 1.01 |
| TTCAGCATAA | 1.28 |
| ACTCATTAG | 0.999 |
| TCGCGGCTGG | 0.995 |
| CGTTGGCTAC | 1.54 |
| CAGTAGGTCA | 0.981 |
| CACGGTTGC | 0.977 |

| Sequence | switch fluorescence ratio |
| --- | --- |
| CCAGAAACAT | 1.01 |
| GGCGTCAAAA | 1.1 |
| AGTTTCCCAG | 1.07 |
| TCAACTGTT | 0.862 |
| CCTGGCTAAA | 1.14 |
| TACGCATATA | 2.51 |
| CAATTTAGG | 0.968 |
| GCGCAACTCT | 1.18 |
| GAGACGCT | 1.01 |
| AATTCTTAGC | 0.916 |
| CGTTCTCTGC | 1 |
| TGAATATAAC | 0.98 |
| GCGAGCATAC | 3.13 |
| ATAGTTC | 1.02 |
| TAACTAGTTC | 0.972 |
| ACGGCGCCCA | 1.04 |
| GAATGAAAGG | 0.978 |
| GCTGGTTCCA | 0.997 |
| CACACTCGGG | 1.02 |
| TATAGGGAAC | 1.04 |
| TTCCATTAAC | 0.996 |
| AAGTTGCGT | 1.03 |
| AAAATATGCG | 0.963 |
| GACCGCTGTG | 0.93 |
| CCAGTAAGCT | 1.02 |
| TCCTCTTGCG | 1.34 |

| Sequence | switch fluorescence ratio |
| --- | --- |
| TTTTCCTGCC | 1.53 |
| ATAAAATGAT | 1.02 |
| TCACCCATGT | 1.07 |
| ACAGATCTCG | 1.07 |
| CTAGGGGGCT | 1.09 |
| CATGAGGTGG | 1.25 |
| CCGATGCGTG | 2.58 |
| CCCCCGGTCG | 2.73 |
| GCTAGACTC | 1.85 |
| CCTGGTAAAA | 0.992 |
| TCTCAGACGC | 1.21 |
| GGACAATTAT | 0.97 |
| GGGTTGATGT | 1.03 |
| TTATGTGTGC | 1.04 |
| TTATTAGCCC | 1.02 |
| GGCACGGGCG | 0.998 |
| GATGTGTTCA | 1.01 |
| GCTACACGGG | 1.05 |
| AATGACCTAC | 1.25 |
| CGGGATAGT | 1.03 |
| TTATTGATAC | 1.09 |
| ATACGGTGAC | 1.24 |
| ATACTGATAA | 1.08 |
| AGAGTAGTCC | 1.02 |
| TCTTGCCCAT | 1.01 |
| GCTACAATTA | 1.01 |

| Sequence | switch fluorescence ratio |
| --- | --- |
| ATTAGCGCGG | 1.01 |
| CTAATAGTCC | 1.13 |
| TCTTGTTCCC | 1.07 |
| AGTGTTACTT | 1.03 |
| CACTTTTTAA | 0.989 |
| ACGCACTAAT | 1.4 |
| GCAGTGGATA | 0.994 |
| AGGCCCAAGT | 0.992 |
| CAGCTGTGGG | 1.06 |
| TACACTGGCA | 1.04 |
| TCTATTTAAG | 1.01 |
| AATAACGGAG | 0.957 |
| ACGGAACTGT | 1.42 |
| TGTATTAGGG | 0.987 |
| TCCTACGATG | 1.97 |
| GGAAGGTCAT | 0.94 |
| CAGTTATGAA | 1.03 |
| AACAATTTTG | 1 |
| TCCTTATGTC | 1.03 |
| AGAGCCCGTC | 1.01 |
| GTGACGGTGT | 1.04 |
| ATCAGAGTC | 1.02 |
| CAGTTCAGGC | 1.03 |
| AGAATTGGAT | 0.979 |
| TCGTACGCCC | 2.09 |
| TTTCCGTGCC | 3.11 |

| Sequence | switch fluorescence ratio |
| --- | --- |
| GTGATCGCC | 0.996 |
| CCAGGTTCTA | 1.04 |
| AGCCGGGAGT | 0.991 |
| CCGAACAGGG | 1.05 |
| CTGGTTATGA | 1 |
| GCTGAATGGG | 0.945 |
| AACCAAGCCA | 0.997 |
| CACACTTTGA | 1.06 |
| CTATAGCTGT | 1.1 |
| GTCATTATGT | 0.975 |
| ATGAAATAAG | 1.02 |
| TTTCCCCAGG | 4.68 |
| GGCTGACGTT | 1.03 |
| GCCAATATGG | 1.02 |
| ATTAAGAAGT | 0.995 |
| AAATGAAATA | 0.938 |
| TAATTTTTCA | 0.997 |
| TATGGTAGCG | 1.01 |
| GGGGCCTAAA | 0.996 |
| TTTCTCGGCG | 1.05 |
| CTACGGCAAA | 2.46 |
| ATCTAAGATT | 1.03 |
| GGGAATTTAT | 1.03 |
| ATGATTGACG | 1.08 |
